Laboratory results reported in article PMC10050012.
Results are given in words; binding and its absence hold for the method and conditions named. For some of these results: Binding seen in cells or lysates may run through a third protein. Some binding calls cover weakened binding; strength is not graded here.

By UniProt entry, the sequences of proteins in these tests, tags left out. Residues count along the entry.
UniProt P05107, residues 23-769: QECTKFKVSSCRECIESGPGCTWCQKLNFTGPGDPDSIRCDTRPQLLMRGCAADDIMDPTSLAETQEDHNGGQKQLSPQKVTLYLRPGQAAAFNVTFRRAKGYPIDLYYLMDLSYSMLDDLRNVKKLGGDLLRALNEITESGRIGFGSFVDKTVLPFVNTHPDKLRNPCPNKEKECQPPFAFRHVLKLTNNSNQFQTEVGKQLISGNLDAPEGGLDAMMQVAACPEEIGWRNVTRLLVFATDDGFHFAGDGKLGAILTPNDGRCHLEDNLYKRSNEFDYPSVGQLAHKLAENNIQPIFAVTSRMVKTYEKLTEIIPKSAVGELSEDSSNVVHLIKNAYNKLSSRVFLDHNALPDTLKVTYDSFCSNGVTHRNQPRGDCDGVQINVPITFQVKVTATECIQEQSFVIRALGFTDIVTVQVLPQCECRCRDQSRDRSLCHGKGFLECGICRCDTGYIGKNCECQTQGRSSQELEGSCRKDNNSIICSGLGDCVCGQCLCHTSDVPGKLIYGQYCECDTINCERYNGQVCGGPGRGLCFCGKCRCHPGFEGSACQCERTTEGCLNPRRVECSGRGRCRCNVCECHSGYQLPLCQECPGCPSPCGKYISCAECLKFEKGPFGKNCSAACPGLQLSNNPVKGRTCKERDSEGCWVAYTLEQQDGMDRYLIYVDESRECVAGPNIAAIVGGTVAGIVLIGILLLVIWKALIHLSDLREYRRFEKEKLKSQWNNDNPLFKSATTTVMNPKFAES

What was measured:
[1] = molecular target: T1, transglutaminase 2 (human (endogenous in NB4)) (UniProt P21980); test: co-IP; immunoprecipitation from the plasma membrane fraction (and total cell lysate) of ATRA-treated NB4 WT cells with a polyclonal TG2 antibody and, reciprocally, with antibodies to mTOR, AKT, CD18, p85, PI3K/p110, PTEN and c-SRC; Western blot
T1 sequence: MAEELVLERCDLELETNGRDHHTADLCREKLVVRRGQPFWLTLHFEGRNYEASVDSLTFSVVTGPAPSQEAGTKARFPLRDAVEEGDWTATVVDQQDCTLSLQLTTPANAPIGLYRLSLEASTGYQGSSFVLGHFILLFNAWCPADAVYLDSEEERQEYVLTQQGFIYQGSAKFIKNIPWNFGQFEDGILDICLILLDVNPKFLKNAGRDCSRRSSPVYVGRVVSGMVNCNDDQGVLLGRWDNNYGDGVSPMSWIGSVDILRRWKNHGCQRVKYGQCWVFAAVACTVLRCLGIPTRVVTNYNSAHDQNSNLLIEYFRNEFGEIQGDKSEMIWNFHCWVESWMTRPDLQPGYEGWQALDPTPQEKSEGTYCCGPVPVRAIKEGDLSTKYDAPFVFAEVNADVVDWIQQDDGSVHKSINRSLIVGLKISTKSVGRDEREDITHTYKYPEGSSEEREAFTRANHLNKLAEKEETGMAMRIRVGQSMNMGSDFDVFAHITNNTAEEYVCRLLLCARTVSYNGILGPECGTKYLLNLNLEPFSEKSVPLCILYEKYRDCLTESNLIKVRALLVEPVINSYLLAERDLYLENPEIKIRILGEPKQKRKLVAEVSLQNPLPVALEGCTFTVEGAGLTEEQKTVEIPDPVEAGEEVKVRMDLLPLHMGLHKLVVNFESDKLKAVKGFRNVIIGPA

[2] = molecular target: T1, transglutaminase 2 (human (endogenous in NB4)); test: condition: only cells treated with ATRA + NC9 (30 μM) for 5 days; co-IP; as a1, NB4 WT cells treated with ATRA + NC9 (30 μM, TG2 inhibitor) for 5 days
[3] = molecular target: T1, transglutaminase 2 (human (endogenous in NB4)); test: far-Western, overlay or dot blot; modified far-western blot with disuccinimidyl suberate (DSS): bait proteins immunoprecipitated from plasma membrane, renatured and incubated with plasma membrane lysates; bound prey detected by a primary antibody; NB4 WT cells with ATRA for 5 days, also for 2 days, and NB4 WT CD18-/- cells; only the target purified
[4] = molecular target: T1, transglutaminase 2 (human (endogenous in NB4)); test: condition: only cells treated with ATRA + PP2 (20 μM) for 5 days; co-IP; as a1, NB4 WT cells treated with ATRA + PP2 (20 μM, c-SRC inhibitor) for 5 days

## CD18 β2-integrin subunit (from UniProt P05107 23-769) (receptor)
[1]
  binding: binds
[2]
  binding: no binding
[3]
  binding: binds
[4]
  binding: no binding
